No constants are given. Whether binding was seen depends on the method and setting. Binding seen in cells or lysates may run through a third protein. Some binding calls cover weakened binding; strength is not graded here. For part of these data: Sequences can lack the tags named with a protein. Values belong to the molecule of their own block, whether it stands above or below them.
Assays:
Assay in all cases: pull-down; GST fusions of repressors (full-length or length variants) immobilised on GSH sepharose, incubated with bacterial total protein extracts containing HA-tagged Sin3, Cyc8 or Tup1 (or Tup1 length variants); elution with free GSH, anti-HA blot (Figs. 1, 3, 4, 5); only the target purified
[1] = target: GST-Dal80 (full-length) (S. cerevisiae) (UniProt P26343)
[2] = target: T1, GST-Mth1 (full-length) (S. cerevisiae) (UniProt P35198)
T1 sequence: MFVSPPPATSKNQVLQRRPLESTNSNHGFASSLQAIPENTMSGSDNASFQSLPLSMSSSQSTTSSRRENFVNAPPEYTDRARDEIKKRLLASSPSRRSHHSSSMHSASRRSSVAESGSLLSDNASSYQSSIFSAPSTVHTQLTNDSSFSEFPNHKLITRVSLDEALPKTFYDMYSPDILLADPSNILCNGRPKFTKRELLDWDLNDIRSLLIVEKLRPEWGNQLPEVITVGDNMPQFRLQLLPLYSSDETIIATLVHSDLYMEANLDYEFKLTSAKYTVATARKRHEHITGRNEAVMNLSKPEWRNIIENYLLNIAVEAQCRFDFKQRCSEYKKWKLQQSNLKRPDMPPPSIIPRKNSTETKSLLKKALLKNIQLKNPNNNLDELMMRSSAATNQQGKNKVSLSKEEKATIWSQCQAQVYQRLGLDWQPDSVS

The chains behind the UniProt entries cited, without tags or fusion partners.
UniProt P26343: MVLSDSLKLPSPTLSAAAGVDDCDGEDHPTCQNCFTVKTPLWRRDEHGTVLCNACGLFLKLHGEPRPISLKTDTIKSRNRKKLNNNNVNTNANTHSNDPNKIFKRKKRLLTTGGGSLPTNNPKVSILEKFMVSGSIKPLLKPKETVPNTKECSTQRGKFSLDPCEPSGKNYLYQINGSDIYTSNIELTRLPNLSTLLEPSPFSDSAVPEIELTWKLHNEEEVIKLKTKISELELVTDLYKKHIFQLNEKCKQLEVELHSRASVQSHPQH
UniProt P22579: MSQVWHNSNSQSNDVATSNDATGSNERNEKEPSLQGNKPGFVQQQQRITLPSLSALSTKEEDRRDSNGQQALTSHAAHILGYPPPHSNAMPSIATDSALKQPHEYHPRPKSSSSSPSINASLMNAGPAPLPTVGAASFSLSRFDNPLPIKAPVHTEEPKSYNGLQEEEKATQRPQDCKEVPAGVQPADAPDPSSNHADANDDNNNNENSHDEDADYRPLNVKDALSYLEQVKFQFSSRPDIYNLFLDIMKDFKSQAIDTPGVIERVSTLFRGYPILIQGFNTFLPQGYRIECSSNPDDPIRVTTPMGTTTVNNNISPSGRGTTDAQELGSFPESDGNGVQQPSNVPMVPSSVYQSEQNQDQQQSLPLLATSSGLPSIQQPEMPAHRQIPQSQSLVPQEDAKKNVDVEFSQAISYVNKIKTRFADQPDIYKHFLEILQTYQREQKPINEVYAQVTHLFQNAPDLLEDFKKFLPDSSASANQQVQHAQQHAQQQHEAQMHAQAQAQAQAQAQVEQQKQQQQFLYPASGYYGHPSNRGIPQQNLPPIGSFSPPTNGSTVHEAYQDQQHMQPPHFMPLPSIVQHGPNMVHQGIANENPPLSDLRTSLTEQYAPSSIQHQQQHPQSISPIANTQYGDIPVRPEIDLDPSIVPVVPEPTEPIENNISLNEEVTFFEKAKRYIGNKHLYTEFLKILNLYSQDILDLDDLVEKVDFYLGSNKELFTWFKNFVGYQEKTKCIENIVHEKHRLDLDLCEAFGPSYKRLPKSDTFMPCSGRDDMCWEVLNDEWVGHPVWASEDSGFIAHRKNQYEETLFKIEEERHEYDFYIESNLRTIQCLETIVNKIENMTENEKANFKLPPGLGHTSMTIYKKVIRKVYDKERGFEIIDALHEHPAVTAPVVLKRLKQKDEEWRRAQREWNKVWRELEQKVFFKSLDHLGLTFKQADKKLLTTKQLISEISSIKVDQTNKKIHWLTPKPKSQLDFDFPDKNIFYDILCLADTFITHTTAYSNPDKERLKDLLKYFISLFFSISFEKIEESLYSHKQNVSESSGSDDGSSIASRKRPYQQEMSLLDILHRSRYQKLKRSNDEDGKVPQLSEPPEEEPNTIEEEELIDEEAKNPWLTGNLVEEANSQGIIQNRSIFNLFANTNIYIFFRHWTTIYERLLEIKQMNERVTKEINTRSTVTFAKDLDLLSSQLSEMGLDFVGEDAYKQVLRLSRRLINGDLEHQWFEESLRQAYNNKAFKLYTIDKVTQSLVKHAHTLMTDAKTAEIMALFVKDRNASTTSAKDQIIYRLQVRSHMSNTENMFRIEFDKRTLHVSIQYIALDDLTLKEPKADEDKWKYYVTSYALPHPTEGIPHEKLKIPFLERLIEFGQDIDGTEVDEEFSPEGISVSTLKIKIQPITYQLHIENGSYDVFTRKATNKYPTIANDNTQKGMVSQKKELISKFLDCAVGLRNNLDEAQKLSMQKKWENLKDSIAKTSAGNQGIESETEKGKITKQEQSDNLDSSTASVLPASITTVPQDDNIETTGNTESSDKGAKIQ
UniProt P16649: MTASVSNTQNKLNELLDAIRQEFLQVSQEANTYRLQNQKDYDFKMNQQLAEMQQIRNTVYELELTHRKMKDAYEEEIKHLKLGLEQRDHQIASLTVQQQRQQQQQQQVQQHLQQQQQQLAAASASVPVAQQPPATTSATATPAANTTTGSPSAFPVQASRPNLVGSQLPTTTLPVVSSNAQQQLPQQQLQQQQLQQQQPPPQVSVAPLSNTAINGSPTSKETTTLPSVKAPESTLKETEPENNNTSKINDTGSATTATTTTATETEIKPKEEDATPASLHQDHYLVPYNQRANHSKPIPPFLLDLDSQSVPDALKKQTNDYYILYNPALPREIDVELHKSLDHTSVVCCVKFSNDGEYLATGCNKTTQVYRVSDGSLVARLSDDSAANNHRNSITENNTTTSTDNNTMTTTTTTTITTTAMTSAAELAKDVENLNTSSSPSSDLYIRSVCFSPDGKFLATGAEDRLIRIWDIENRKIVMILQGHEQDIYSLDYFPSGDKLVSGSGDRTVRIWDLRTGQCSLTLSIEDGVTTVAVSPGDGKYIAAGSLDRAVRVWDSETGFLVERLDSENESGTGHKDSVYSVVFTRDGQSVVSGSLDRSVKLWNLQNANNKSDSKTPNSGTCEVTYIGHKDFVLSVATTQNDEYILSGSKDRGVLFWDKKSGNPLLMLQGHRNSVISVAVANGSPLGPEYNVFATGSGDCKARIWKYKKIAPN

[3] = target: T2, GST-Rox1 (full-length) (S. cerevisiae) (UniProt P25042)
T2 sequence: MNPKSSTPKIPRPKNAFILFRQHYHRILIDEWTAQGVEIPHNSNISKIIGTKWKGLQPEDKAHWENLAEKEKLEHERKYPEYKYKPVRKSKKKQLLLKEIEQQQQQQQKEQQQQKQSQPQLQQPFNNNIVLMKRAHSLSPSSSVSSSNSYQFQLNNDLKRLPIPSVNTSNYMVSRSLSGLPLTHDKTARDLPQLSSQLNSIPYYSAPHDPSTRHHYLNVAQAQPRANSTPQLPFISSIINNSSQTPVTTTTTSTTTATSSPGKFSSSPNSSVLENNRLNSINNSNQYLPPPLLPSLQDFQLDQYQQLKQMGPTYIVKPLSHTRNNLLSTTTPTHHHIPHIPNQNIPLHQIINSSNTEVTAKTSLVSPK

[4] = target: T3, GST-Xbp1 (full-length) (S. cerevisiae) (UniProt P40489)
T3 sequence: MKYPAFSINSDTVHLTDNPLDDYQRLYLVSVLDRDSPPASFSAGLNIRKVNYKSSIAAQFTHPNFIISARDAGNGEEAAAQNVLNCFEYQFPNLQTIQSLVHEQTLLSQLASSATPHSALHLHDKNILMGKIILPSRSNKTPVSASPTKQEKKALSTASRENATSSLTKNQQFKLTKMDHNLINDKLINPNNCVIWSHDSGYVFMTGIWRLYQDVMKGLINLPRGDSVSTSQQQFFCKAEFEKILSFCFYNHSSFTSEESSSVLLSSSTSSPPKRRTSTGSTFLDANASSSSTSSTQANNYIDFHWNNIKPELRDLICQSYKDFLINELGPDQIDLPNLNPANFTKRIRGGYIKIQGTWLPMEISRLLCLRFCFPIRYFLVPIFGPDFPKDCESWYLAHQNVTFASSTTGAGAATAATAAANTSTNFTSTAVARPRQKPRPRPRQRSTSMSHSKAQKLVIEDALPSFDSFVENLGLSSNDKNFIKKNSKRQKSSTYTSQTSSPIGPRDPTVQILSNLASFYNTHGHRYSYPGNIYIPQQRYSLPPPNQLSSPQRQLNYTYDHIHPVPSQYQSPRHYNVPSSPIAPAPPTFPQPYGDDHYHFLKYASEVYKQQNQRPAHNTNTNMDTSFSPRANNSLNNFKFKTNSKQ

[5] = target: T4, GST-Yox1 (full-length) (S. cerevisiae) (UniProt P34161)
T4 sequence: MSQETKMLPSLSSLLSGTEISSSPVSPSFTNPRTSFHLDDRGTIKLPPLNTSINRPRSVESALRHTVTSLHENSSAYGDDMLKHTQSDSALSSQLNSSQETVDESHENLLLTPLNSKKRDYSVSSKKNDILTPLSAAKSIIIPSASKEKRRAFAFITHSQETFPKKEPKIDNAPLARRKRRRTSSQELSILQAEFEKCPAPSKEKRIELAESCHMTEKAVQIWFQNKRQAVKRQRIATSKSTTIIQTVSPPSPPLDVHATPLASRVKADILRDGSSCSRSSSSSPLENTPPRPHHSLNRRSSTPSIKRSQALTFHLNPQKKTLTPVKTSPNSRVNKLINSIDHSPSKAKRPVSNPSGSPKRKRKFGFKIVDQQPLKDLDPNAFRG

binding [1]: binds
binding [2]: no binding
binding [3]: binds
binding [4]: binds
binding [5]: binds
Molecule: HA3-Sin3 (full-length, aa 1-1536; pSW11) (from UniProt P22579 1-1536)

Molecule: HA3-Tup1 (full-length; pFK76) (from UniProt P16649 1-713)
binding [1]: binds
binding [2]: no binding
binding [3]: binds
binding [4]: no binding
binding [5]: binds

B1: HA3-Cyc8 (aa 1-398 with 10 TPR motifs; pFK77) (domain or fragment, UniProt P14922 1-398)
chain: MNPGGEQTIMEQPAQQQQQQQQQQQQQQQQAAVPQQPLDPLTQSTAETWLSIASLAETLGDGDRAAMAYDATLQFNPSSAKALTSLAHLYRSRDMFQRAAELYERALLVNPELSDVWATLGHCYLMLDDLQRAYNAYQQALYHLSNPNVPKLWHGIGILYDRYGSLDYAEEAFAKVLELDPHFEKANEIYFRLGIIYKHQGKWSQALECFRYILPQPPAPLQEWDIWFQLGSVLESMGEWQGAKEAYEHVLAQNQHHAKVLQQLGCLYGMSNVQFYDPQKALDYLLKSLEADPSDATTWYHLGRVHMIRTDYTAAYDAFQQAVNRDSRNPIFWCSIGVLYYQISQYRDALDAYTRAIRLNPYISEVWYDLGTLYETCNNQLSDALDAYKQAARLDVNN
binding [1]: binds
binding [2]: no binding
binding [3]: binds
binding [4]: no binding
binding [5]: binds

From article PMC10163088
